Experimental findings from paper PMC9477738, “PIF4 enhances DNA binding of CDF2 to co-regulate target gene expression and promote Arabidopsis hypocotyl cell elongation” (Nature Plants, 2022) are described below.

For experiment [1], the target named is T1, 2HA-CDF2 full length, synthesized in a cell-free system (Arabidopsis thaliana) (UniProt Q93ZL5).
T1 sequence: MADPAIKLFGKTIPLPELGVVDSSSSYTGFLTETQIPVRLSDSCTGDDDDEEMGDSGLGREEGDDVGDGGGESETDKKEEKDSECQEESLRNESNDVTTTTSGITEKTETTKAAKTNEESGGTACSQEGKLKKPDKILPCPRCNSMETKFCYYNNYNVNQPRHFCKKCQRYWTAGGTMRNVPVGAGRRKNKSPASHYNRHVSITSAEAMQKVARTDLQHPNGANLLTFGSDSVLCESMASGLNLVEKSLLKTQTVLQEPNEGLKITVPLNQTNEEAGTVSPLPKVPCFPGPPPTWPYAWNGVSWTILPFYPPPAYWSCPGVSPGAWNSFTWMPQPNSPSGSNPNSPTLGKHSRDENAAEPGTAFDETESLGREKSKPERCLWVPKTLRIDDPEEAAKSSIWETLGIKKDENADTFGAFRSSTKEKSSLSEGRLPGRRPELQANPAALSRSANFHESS
As to the kind of experiment: pull-down; proteins synthesized in wheat germ extract, mixed in IP buffer (22 mM Tris-HCl pH 7.5, 84 mM NaCl, 1.1 mM EDTA, 0.11% Triton X-100) at 4 °C; antibody-coated Dynabeads Protein G (anti-Myc by the methods, anti-HA by the results); immunoblot with anti-HA and anti-Myc. (In general: In western blotting, separated proteins are transferred to a membrane and probed.)

For experiment [2], the target named is T2, 2HA-CDF2-N (CDF2 residues 1-201), synthesized in a cell-free system (Arabidopsis thaliana) (UniProt Q93ZL5).
T2 sequence: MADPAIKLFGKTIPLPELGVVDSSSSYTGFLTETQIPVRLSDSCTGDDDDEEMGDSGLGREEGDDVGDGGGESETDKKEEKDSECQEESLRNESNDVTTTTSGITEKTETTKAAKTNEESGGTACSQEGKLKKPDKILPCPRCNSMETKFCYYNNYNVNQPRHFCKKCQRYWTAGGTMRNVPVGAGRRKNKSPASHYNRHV
The experiment is described as above.

Experiment [3] concerns the target T3, 2HA-CDF2-C (CDF2 residues 202-457), synthesized in a cell-free system (Arabidopsis thaliana) (UniProt Q93ZL5).
T3 sequence: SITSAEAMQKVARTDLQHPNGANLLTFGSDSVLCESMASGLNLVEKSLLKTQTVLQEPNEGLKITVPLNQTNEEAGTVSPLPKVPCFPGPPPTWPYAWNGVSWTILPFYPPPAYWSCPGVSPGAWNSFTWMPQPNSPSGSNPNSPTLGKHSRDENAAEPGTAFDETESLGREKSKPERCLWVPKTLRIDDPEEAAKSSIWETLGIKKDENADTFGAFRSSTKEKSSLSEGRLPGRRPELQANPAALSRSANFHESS
Described as above.

Experiment [4] has as its target MBP-CDF2^DOF (DOF DNA-binding domain of CDF2 fused to N-terminal maltose binding protein) (Arabidopsis thaliana) (UniProt Q93ZL5). Nature of the experiment: SEC; gel filtration of a single MBP fusion protein (self-association); HiLoad 200, 25 mM Bis-Tris pH 8.0, 150 mM NaCl; both purified. For orientation: SEC sorts molecules by how far they enter the pores of the column.

The target of experiment [5] is T4, MBP-PIF4^bHLH (bHLH DNA-binding domain of PIF4 fused to N-terminal maltose binding protein) (Arabidopsis thaliana) (UniProt Q8W2F3).
T4 sequence: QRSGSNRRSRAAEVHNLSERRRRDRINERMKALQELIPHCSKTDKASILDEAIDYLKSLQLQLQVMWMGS
As to the kind of experiment: SEC; gel filtration of MBP-CDF2^DOF and MBP-PIF4^bHLH together, fractions on SDS-PAGE; both purified.

Experiment [6] concerns the target T5, PIF4-TAP (PHYTOCHROME-… FACTOR 4 with 9xMyc-6xHis-3xFlag) expressed from 35S::PIF4-TAP in Arabidopsis (Arabidopsis thaliana) (UniProt Q8W2F3).
T5 sequence: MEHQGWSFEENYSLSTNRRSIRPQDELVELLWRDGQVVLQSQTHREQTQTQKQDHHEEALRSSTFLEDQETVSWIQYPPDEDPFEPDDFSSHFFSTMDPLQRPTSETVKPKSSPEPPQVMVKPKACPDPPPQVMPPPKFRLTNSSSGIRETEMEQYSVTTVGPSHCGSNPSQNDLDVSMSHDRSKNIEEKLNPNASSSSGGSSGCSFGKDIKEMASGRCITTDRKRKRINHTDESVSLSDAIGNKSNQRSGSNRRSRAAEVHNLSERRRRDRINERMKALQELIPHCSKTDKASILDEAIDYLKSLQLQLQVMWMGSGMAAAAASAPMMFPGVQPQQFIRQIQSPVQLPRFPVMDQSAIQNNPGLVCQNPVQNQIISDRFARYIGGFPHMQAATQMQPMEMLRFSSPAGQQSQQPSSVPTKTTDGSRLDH
As to the kind of experiment: co-IP; anti-Myc antibody on Dynabeads Protein G; nuclear proteins of 6-day-old SD-grown F1 seedlings (35S::PIF4-TAP x CDF2::3HA-CDF2); 0.5% Triton X-100, 1 mM EDTA, 20 mM Tris-HCl pH 7.5, 100 mM NaCl; 45 min at 4 °C; immunoblot with anti-HA and anti-Myc.

No constants are given. Whether binding was seen depends on the method and setting. For some assays here: In cells and extracts the contact can be indirect. Some binding calls cover weakened binding; strength is not graded here. Sequences can lack the tags named with a protein.

B1: PIF4-C-6Myc (PIF4 residues 249-431), synthesized in a cell-free system (domain or fragment, UniProt Q8W2F3 249-430)
chain: RSGSNRRSRAAEVHNLSERRRRDRINERMKALQELIPHCSKTDKASILDEAIDYLKSLQLQLQVMWMGSGMAAAAASAPMMFPGVQPQQFIRQIQSPVQLPRFPVMDQSAIQNNPGLVCQNPVQNQIISDRFARYIGGFPHMQAATQMQPMEMLRFSSPAGQQSQQPSSVPTKTTDGSRLDH
For B1, the figures for the binding result in experiment [1], in experiment [2] and in experiment [3] were “binds”, “binds” and “no binding”, respectively.

B2: PIF4-N-6Myc (PIF4 residues 1-248), synthesized in a cell-free system (domain or fragment, UniProt Q8W2F3 1-248)
chain: MEHQGWSFEENYSLSTNRRSIRPQDELVELLWRDGQVVLQSQTHREQTQTQKQDHHEEALRSSTFLEDQETVSWIQYPPDEDPFEPDDFSSHFFSTMDPLQRPTSETVKPKSSPEPPQVMVKPKACPDPPPQVMPPPKFRLTNSSSGIRETEMEQYSVTTVGPSHCGSNPSQNDLDVSMSHDRSKNIEEKLNPNASSSSGGSSGCSFGKDIKEMASGRCITTDRKRKRINHTDESVSLSDAIGNKSNQ
Consider B2, for which the binding result in experiment [1] and in experiment [2] was “no binding” in each case.

B3: MBP-CDF2^DOF (DOF DNA-binding domain of CDF2 fused to N-terminal maltose binding protein) (domain or fragment, UniProt Q93ZL5 133-201)
chain: KPDKILPCPRCNSMETKFCYYNNYNVNQPRHFCKKCQRYWTAGGTMRNVPVGAGRRKNKSPASHYNRHV
With B3, the binding result in experiment [4] and in experiment [5] was “no binding” throughout.

B4: 3HA-CDF2 (CYCLING DOF FACTOR 2) expressed from CDF2::3HA-CDF2 in Arabidopsis (protein, UniProt Q93ZL5 1-457)
chain: MADPAIKLFGKTIPLPELGVVDSSSSYTGFLTETQIPVRLSDSCTGDDDDEEMGDSGLGREEGDDVGDGGGESETDKKEEKDSECQEESLRNESNDVTTTTSGITEKTETTKAAKTNEESGGTACSQEGKLKKPDKILPCPRCNSMETKFCYYNNYNVNQPRHFCKKCQRYWTAGGTMRNVPVGAGRRKNKSPASHYNRHVSITSAEAMQKVARTDLQHPNGANLLTFGSDSVLCESMASGLNLVEKSLLKTQTVLQEPNEGLKITVPLNQTNEEAGTVSPLPKVPCFPGPPPTWPYAWNGVSWTILPFYPPPAYWSCPGVSPGAWNSFTWMPQPNSPSGSNPNSPTLGKHSRDENAAEPGTAFDETESLGREKSKPERCLWVPKTLRIDDPEEAAKSSIWETLGIKKDENADTFGAFRSSTKEKSSLSEGRLPGRRPELQANPAALSRSANFHESS
Regarding B4, the binding result in experiment [6] is listed as “binds”.
